Out of some 350,000 compounds screened, about 9,900 (2.8%) were called active. Inconclusive results, whose numbers are uncertain, are shown with a selection of clear calls. Calls follow the shape of the dose curve; as a rule, active = well fitted activation curve with a large enough effect; inconclusive = small, poorly fitted or top-dose-only effect; inactive = no such curve, though single readings can be large or run the other way. Potencies of inconclusive entries are left out as doubtful fits.
Assay: A quantitative high throughput screen for small molecules that induce DNA re-replication in MCF 10a normal breast cells. Also: nearly all actives have a fitted effect of over 50% in size. As to activity, positive = re-replication: % of control where 0% means no effect.
Details: MCF 10A DNA re-replication, Hoechst nuclear intensity, 48 h; activity, positive = re-replication: at 46.1 µM (top of the series)
Potency is read from the fitted curve at half-maximal effect; tags tell the direction and shape of the fitted curve.

Row | SMILES | activity, positive = re-replication | Potency
1 | COc1ccc(NC(=O)CC2C(=O)N(C)C(=S)N2CCc2ccc(F)cc2)cc1 (stereo not given) | inactive: 7.8% | –
2 | CN(CC(=O)Nc1ccccc1C(F)(F)F)C(=O)c1cc2c(s1)CCCCC2 | – | inconclusive [activator, single point]
3 | O=C(NNC(=O)c1ccc(-n2cncn2)c([N+](=O)[O-])c1)c1cccc(Cl)c1 | – | inconclusive [activator, partial curve, poor fit]
4 | CCc1noc(C)c1C(=O)Nc1cc(Cl)ccc1N1CCOCC1 | inactive: 0.611% | –
5 | O=C(CCCN1C(=O)/C(=C/c2ccccc2)SC1=S)Nc1cccc(O)c1 | – | inconclusive [activator, partial curve, poor fit]
6 | Cc1ccccc1N(C(=O)CNC(=O)c1ccco1)C(C(=O)NC1CCCC1)c1ccncc1 (stereo not given) | inactive: 1.79% | –
7 | COc1ccc(C(=O)/C=C\N2CCOCC2)cc1 | – | inconclusive [activator, single point]
8 | O=C(CN1C(=O)NC2(CCCCC2)C1=O)Oc1ccc2ccc(=O)oc2c1 | – | inconclusive [activator, single point]
9 | O=C(Nc1ccccc1)c1ccc(-c2ccc([N+](=O)[O-])cc2)o1 | – | active: 23.1 µM
10 | CCCCOc1ccc(S(=O)(=O)NNC(=O)c2cc3ccccc3o2)cc1 | – | inconclusive [activator, single point]
11 | Cc1ccccc1S(=O)(=O)Cc1ccc(C(=O)NC2CC2)o1 | – | inconclusive [activator, single point]
12 | Cc1cc(C)n2c(SCC(=O)Nc3cccc(S(N)(=O)=O)c3)nnc2n1 | inactive: 3.25% | –
13 | O=C1c2ccccc2-c2c1c1ccccc1c(=O)n2CCO | – | inconclusive [activator, full curve, poor fit]
14 | CC1CCN(CCOCCSc2ccc(Cl)cc2)CC1 | – | inconclusive [activator, partial curve, poor fit]
15 | Cc1ccc2nc(-c3ccc(NS(=O)(=O)c4ccc(F)c(F)c4)cc3)sc2c1 | – | active: 10.3 µM
16 | Cc1cc(C)cc(-n2c(N)c(C(=O)Nc3c(C)n(C)n(-c4ccccc4)c3=O)c3nc4ccccc4nc32)c1 | – | inconclusive [activator, full curve, poor fit]
17 | Cc1oc(-c2cc(F)ccc2F)nc1CN(C)Cc1ccc2nccnc2c1 | inactive: 0.152% | –
18 | CCN(CC)S(=O)(=O)c1ccc2c(c1)C(=NO)c1cc(S(=O)(=O)N(CC)CC)ccc1-2 | – | active: 8.2 µM
19 | C#CCNC(=O)C1=C[C@H](C2CCCCC2)[C@@H](CCCO)[C@H](OCC)O1 | inactive: -7.79% | –
20 | COc1ccc(C(=O)O/N=C(\N)Cc2ccc([N+](=O)[O-])cc2)c(OC)c1 | inactive: 23.2% | –
21 | NNc1ccccc1C(F)(F)F | inactive: 1.63% | –
22 | CCOC(=O)C(=CNc1cc(C)nn1C(C)(C)C)C(=O)OCC | – | inconclusive [activator, partial curve, poor fit]
23 | COc1cc(NC(=O)C2CC(=O)NC3=C2C(=O)CCC3)c(OC)cc1Cl (stereo not given) | inactive: 18.2% | –

Row | SMILES | activity, positive = re-replication | Potency
24 | Cc1cccc(N2CCN(C3=NC(=O)/C(=C\c4cn[nH]c4-c4ccccc4)S3)CC2)c1 | inactive: 6.05% | –
25 | O=C1NCC(c2ccccc2)C1C(=O)N/N=C\c1ccc(-c2ccc(Cl)c(Cl)c2)o1 (stereo not given) | – | inconclusive [activator, single point]
26 | CCN(Cc1ccc2c(c1)OCO2)C(=O)/C=C/c1cccc(Br)c1 | – | inconclusive [activator, single point]
27 | O=C1C2CCCCN2C(=O)N1CCN1CCN(c2cccc(Cl)c2)CC1 (stereo not given) | inactive: -0.0497% | –
28 | Cc1cc(Nc2cccc(Cl)c2Cl)n2ncnc2n1 | – | inconclusive [activator, single point]
29 | O=C(CN1C(=O)C2C3C=CC(C3)C2C1=O)OCC(=O)c1ccc([N+](=O)[O-])cc1 (stereo not given) | – | inconclusive [activator, partial curve, poor fit]
30 | COc1ccc(CC(=O)Nc2ccc(-c3noc(-c4ccccc4OC)n3)cc2)cc1 | inactive: 11.7% | –
31 | Cc1ccc(C(=O)Nc2nc(COc3ccccc3)cs2)s1 | – | active: 20.6 µM
32 | CCCCCCSc1cc(-c2nc3cnccn3c2NCc2ccccc2)ccc1OC | – | inconclusive [activator, partial curve, poor fit]
33 | CCCn1c(=O)c(C(=O)NCc2ccccn2)c(O)c2ccccc21 | – | inconclusive [activator, partial curve]
34 | COc1ccccc1NS(=O)(=O)c1cccc(C(=O)N/N=C/c2ccc([N+](=O)[O-])o2)c1 | – | active: 20.6 µM
35 | CCOC(=O)c1[nH]c2ccccc2c1NC(=O)c1ccc(S(=O)(=O)N2CCCCC2)cc1 | – | active: 23.1 µM
36 | CC(C)(C)c1ccc(COc2ccsc2C(=O)O)cc1 | – | inconclusive [activator, full curve, poor fit]
37 | COc1ccc(C2C(C#N)=C(N)N(Nc3ccccc3)C3=C2C(=O)CC(C)(C)C3)cc1C (stereo not given) | – | inconclusive [activator, single point]
38 | COc1cccc(NC(=O)CNC(C)CCC(C)C)c1 (stereo not given) | – | inconclusive [activator, partial curve, poor fit]
39 | CCOc1ccccc1N(CC(=O)Nc1ccccc1C(=O)N1CCCC1)S(C)(=O)=O | inactive: -1.56% | –
40 | O=C(CSc1ncn[nH]1)c1cccc([N+](=O)[O-])c1 | – | inconclusive [activator, single point]
41 | O=C(N/N=C/c1cc([N+](=O)[O-])cc([N+](=O)[O-])c1O)C(O)(c1ccccc1)c1ccccc1 | inactive: -2.15% | –
42 | COc1ccc(N2CCN(C(=O)C3CCN(S(=O)(=O)c4ccccc4)CC3)CC2)cc1 | inactive: -29.7% | –
43 | Cc1ccc(C)c(NS(=O)(=O)c2cc(C(=O)NCc3ccccn3)ccc2C)c1 | – | inconclusive [activator, single point]
44 | CCOC(=O)c1nn(-c2ccccc2)c(=O)cc1SC1CCCCC1 | inactive: -57.3% | –
45 | CCOC(=O)c1c(C)nc(C)c(C(=O)OCC)c1-c1ccc(O)c(OC)c1 | – | inconclusive [activator, partial curve, poor fit]

Source: PubChem BioAssay AID624296 (National Center for Advancing Translational Sciences (NCATS), 2012)
